Results published in the supplement of paper PMC10369915.
Some of the results follow. Cut-off read from the data, not from the text of the source: active = 3.2 or more and inactive = the rest. Most of these values are background signal.

What was measured:
Assay in all cases: enrichment score (SH2-bound / input frequency) (ratio); bacterial display of known human phosphotyrosine sites (pTyr-Var adds point mutants) read by sequencing; higher = stronger binding; tyrosines were phosphorylated by kinases first
Conditions in all cases: peptide library: pTyr-Var
SHP2 C-SH2 domain E139D = biological target: SHP2 C-SH2 domain E139D
[1] = biological target: SHP2 C-SH2 domain wild-type
SHP2 N-SH2 domain L43F = biological target: SHP2 N-SH2 domain L43F
SHP2 N-SH2 domain T42A = biological target: SHP2 N-SH2 domain T42A
SHP2 N-SH2 domain T52S = biological target: SHP2 N-SH2 domain T52S
[2] = biological target: SHP2 N-SH2 domain wild-type

Measured: enrichment score
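Note: displayed peptides selected on beads carrying the immobilized SH2 domain, with library peptides lacking any tyrosine serving as negative controls.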

PKKKQYTSIHH [APP_Y728_L723P]
inactive: SHP2 C-SH2 domain E139D 1.76 | [1] 0.907 | SHP2 N-SH2 domain L43F 1.49 | SHP2 N-SH2 domain T42A 1.3 | SHP2 N-SH2 domain T52S 1.33 | [2] 0.73

KVKSIYFHTQG [AR_Y916_P914S]
inactive: SHP2 C-SH2 domain E139D 0.797 | [1] 0.709 | SHP2 N-SH2 domain L43F 0.756 | SHP2 N-SH2 domain T42A 0.789 | SHP2 N-SH2 domain T52S 0.799 | [2] 0.847

ESLSSYRESAK [APOC2_Y47_W48R]
inactive: SHP2 C-SH2 domain E139D 0.641 | [1] 0.586 | SHP2 N-SH2 domain L43F 0.593 | SHP2 N-SH2 domain T42A 0.493 | SHP2 N-SH2 domain T52S 0.511 | [2] 0.687

KVKPIYFHTQG [AR_Y916]
active: SHP2 C-SH2 domain E139D 3.24
inactive: [1] 2.62 | SHP2 N-SH2 domain L43F 2.98 | SHP2 N-SH2 domain T42A 2.99 | SHP2 N-SH2 domain T52S 2.72 | [2] 2.6

WTAHSYRMGST [ARHGEF7_Y785]
inactive: SHP2 C-SH2 domain E139D 0.76 | [1] 0.756 | SHP2 N-SH2 domain L43F 1.09 | SHP2 N-SH2 domain T42A 0.844 | SHP2 N-SH2 domain T52S 0.792 | [2] 0.756

VLSIDYFFPPQ [AR_Y552_P549S_YF]
inactive: SHP2 C-SH2 domain E139D 2 | [1] 1.65 | SHP2 N-SH2 domain L43F 1.93 | SHP2 N-SH2 domain T42A 2.12 | SHP2 N-SH2 domain T52S 2.17 | [2] 1.74

TSSSRYFDEPV [ARFGAP3_Y356_S355R]
inactive: SHP2 C-SH2 domain E139D 0.652 | [1] 0.343 | SHP2 N-SH2 domain L43F 0.77 | SHP2 N-SH2 domain T42A 0.428 | SHP2 N-SH2 domain T52S 0.499 | [2] 0.511

MTEEQYIKMNR [ARFGEF2_Y797_K794E]
inactive: SHP2 C-SH2 domain E139D 0.705 | [1] 0.763 | SHP2 N-SH2 domain L43F 0.712 | SHP2 N-SH2 domain T42A 0.535 | SHP2 N-SH2 domain T52S 0.53 | [2] 0.798

GGRIDYIAGLD [APRT_Y60]
inactive: SHP2 C-SH2 domain E139D 0.72 | [1] 0.789 | SHP2 N-SH2 domain L43F 0.717 | SHP2 N-SH2 domain T42A 0.834 | SHP2 N-SH2 domain T52S 0.62 | [2] 0.721

GGRIDYIAGLV [APRT_Y60_D65V]
inactive: SHP2 C-SH2 domain E139D 0.973 | [1] 0.923 | SHP2 N-SH2 domain L43F 0.833 | SHP2 N-SH2 domain T42A 0.985 | SHP2 N-SH2 domain T52S 0.818 | [2] 1.02

ESLSSYWESAK [APOC2_Y47]
inactive: SHP2 C-SH2 domain E139D 1.05 | [1] 0.844 | SHP2 N-SH2 domain L43F 0.637 | SHP2 N-SH2 domain T42A 0.676 | SHP2 N-SH2 domain T52S 0.638 | [2] 1.08

VIKDKYPKARF [APTX_Y209_YF]
inactive: SHP2 C-SH2 domain E139D 1.2 | [1] 1.13 | SHP2 N-SH2 domain L43F 1.26 | SHP2 N-SH2 domain T42A 1.03 | SHP2 N-SH2 domain T52S 1.29 | [2] 1.52

KVKPIYLHTQG [AR_Y916_F917L]
inactive: [1] 2.88 | SHP2 N-SH2 domain L43F 3.18 | SHP2 N-SH2 domain T42A 2.56 | SHP2 N-SH2 domain T52S 2.82 | [2] 2.8
active: SHP2 C-SH2 domain E139D 3.46

CSKRFYQLTKL [AR_Y858_R855K]
inactive: SHP2 C-SH2 domain E139D 0.724 | [1] 1.02 | SHP2 N-SH2 domain L43F 0.589 | SHP2 N-SH2 domain T42A 0.697 | SHP2 N-SH2 domain T52S 0.85 | [2] 1.11

VIKDKYPKAHF [APTX_Y209_R213H_YF]
inactive: SHP2 C-SH2 domain E139D 1.08 | [1] 1.06 | SHP2 N-SH2 domain L43F 1.2 | SHP2 N-SH2 domain T42A 1.27 | SHP2 N-SH2 domain T52S 1.04 | [2] 1.21

VIKDKYPKVRY [APTX_Y209_A212V]
inactive: SHP2 C-SH2 domain E139D 1.43 | [1] 1.29 | SHP2 N-SH2 domain L43F 1.42 | SHP2 N-SH2 domain T42A 1.17 | SHP2 N-SH2 domain T52S 1.45 | [2] 1.38

LPEENYQVLRF [ARHGAP1_Y365]
inactive: SHP2 C-SH2 domain E139D 0.798 | [1] 1.24 | SHP2 N-SH2 domain L43F 1.14 | SHP2 N-SH2 domain T42A 1.02 | SHP2 N-SH2 domain T52S 1.25 | [2] 1.3

TDHLRYFDSNK [ARAP1_Y359]
inactive: SHP2 C-SH2 domain E139D 0.929 | [1] 0.911 | SHP2 N-SH2 domain L43F 1.22 | SHP2 N-SH2 domain T42A 0.819 | SHP2 N-SH2 domain T52S 0.935 | [2] 0.756

VFPIDYYFPPQ [AR_Y552_L548F]
inactive: SHP2 C-SH2 domain E139D 1.24 | [1] 0.998 | SHP2 N-SH2 domain L43F 1.23 | SHP2 N-SH2 domain T42A 1.26 | SHP2 N-SH2 domain T52S 1.3 | [2] 1.02

TDHLQYFDSNK [ARAP1_Y359_R358Q]
inactive: SHP2 C-SH2 domain E139D 1.12 | [1] 0.762 | SHP2 N-SH2 domain L43F 0.902 | SHP2 N-SH2 domain T42A 0.361 | SHP2 N-SH2 domain T52S 0.74 | [2] 0.674

KCLAVYQAGAR [APOE_Y180_R176C]
inactive: SHP2 C-SH2 domain E139D 0.919 | [1] 0.944 | SHP2 N-SH2 domain L43F 0.965 | SHP2 N-SH2 domain T42A 1.01 | SHP2 N-SH2 domain T52S 1.01 | [2] 1.09

MTKEQYIKMNQ [ARFGEF2_Y797_R802Q]
inactive: SHP2 C-SH2 domain E139D 0.768 | [1] 0.74 | SHP2 N-SH2 domain L43F 0.656 | SHP2 N-SH2 domain T42A 0.895 | SHP2 N-SH2 domain T52S 0.705 | [2] 0.876

LKKKQYTSIHH [APP_Y728]
inactive: SHP2 C-SH2 domain E139D 1.53 | [1] 1.53 | SHP2 N-SH2 domain L43F 1.57 | SHP2 N-SH2 domain T42A 1.61 | SHP2 N-SH2 domain T52S 1.53 | [2] 1.17

KVKPIYFRTQG [AR_Y916_H918R]
inactive: SHP2 C-SH2 domain E139D 3.08 | [1] 2.12 | SHP2 N-SH2 domain L43F 2.4 | SHP2 N-SH2 domain T42A 2.11 | SHP2 N-SH2 domain T52S 2.57 | [2] 2.44

TSSSSYFDEPV [ARFGAP3_Y356]
inactive: SHP2 C-SH2 domain E139D 0.678 | [1] 0.541 | SHP2 N-SH2 domain L43F 0.529 | SHP2 N-SH2 domain T42A 0.54 | SHP2 N-SH2 domain T52S 0.573 | [2] 0.752

YPKVRYHWLVL [APTX_Y214_A212V]
inactive: SHP2 C-SH2 domain E139D 1.94 | [1] 2.32 | SHP2 N-SH2 domain L43F 2.16 | SHP2 N-SH2 domain T42A 1.79 | SHP2 N-SH2 domain T52S 2.02 | [2] 2.24

FPKARYHWLVL [APTX_Y214_YF]
active: SHP2 C-SH2 domain E139D 3.51 | SHP2 N-SH2 domain L43F 3.29 | SHP2 N-SH2 domain T52S 3.29
inactive: [1] 3 | SHP2 N-SH2 domain T42A 2.62 | [2] 2.58

KLKPIYFHTQG [AR_Y916_V912L]
active: SHP2 C-SH2 domain E139D 3.74 | [1] 3.34 | SHP2 N-SH2 domain L43F 3.66 | SHP2 N-SH2 domain T52S 4.04
inactive: SHP2 N-SH2 domain T42A 3.15 | [2] 2.87

YPKARYHWLVL [APTX_Y214]
active: SHP2 C-SH2 domain E139D 3.48
inactive: [1] 3.1 | SHP2 N-SH2 domain L43F 3.01 | SHP2 N-SH2 domain T42A 2.78 | SHP2 N-SH2 domain T52S 3.02 | [2] 3.06

YPKAHYHWLVL [APTX_Y214_R213H]
active: SHP2 C-SH2 domain E139D 3.53
inactive: [1] 3.07 | SHP2 N-SH2 domain L43F 2.98 | SHP2 N-SH2 domain T42A 2.15 | SHP2 N-SH2 domain T52S 2.76 | [2] 2.98

VLPIDYFFPPQ [AR_Y552_YF]
inactive: SHP2 C-SH2 domain E139D 1.28 | [1] 1.14 | SHP2 N-SH2 domain L43F 1.42 | SHP2 N-SH2 domain T42A 1.37 | SHP2 N-SH2 domain T52S 1.17 | [2] 1.05

LASLIYNFILF [AQP6_Y231_V234I]
inactive: SHP2 C-SH2 domain E139D 2.37 | SHP2 N-SH2 domain L43F 2.57 | SHP2 N-SH2 domain T42A 2.15 | SHP2 N-SH2 domain T52S 2.43
active: [1] 3.4 | [2] 3.87

QPAGNYSLSSV [ARFGAP3_Y473]
inactive: SHP2 C-SH2 domain E139D 0.74 | [1] 0.678 | SHP2 N-SH2 domain L43F 0.706 | SHP2 N-SH2 domain T42A 0.563 | SHP2 N-SH2 domain T52S 0.62 | [2] 0.61

VLPIDYYFPPQ [AR_Y552]
inactive: SHP2 C-SH2 domain E139D 1.34 | [1] 1.15 | SHP2 N-SH2 domain L43F 1.17 | SHP2 N-SH2 domain T42A 1.1 | SHP2 N-SH2 domain T52S 1.15 | [2] 1.23

CSRRFYQLTKL [AR_Y858]
inactive: SHP2 C-SH2 domain E139D 0.322 | [1] 0.356 | SHP2 N-SH2 domain L43F 0.347 | SHP2 N-SH2 domain T42A 0.253 | SHP2 N-SH2 domain T52S 0.281 | [2] 0.337

RGDCTYAPLLG [AR_Y269_M268T]
inactive: SHP2 C-SH2 domain E139D 0.817 | [1] 0.754 | SHP2 N-SH2 domain L43F 0.772 | SHP2 N-SH2 domain T42A 0.612 | SHP2 N-SH2 domain T52S 0.638 | [2] 0.979

ISDDNYGRIRL [ARCN1_Y310_K309N]
inactive: SHP2 C-SH2 domain E139D 0.678 | [1] 0.838 | SHP2 N-SH2 domain L43F 0.685 | SHP2 N-SH2 domain T42A 0.602 | SHP2 N-SH2 domain T52S 0.776 | [2] 0.764
